Test results as given in publication PMC8113725, “Structure–activity relationship of ipglycermide binding to phosphoglycerate mutases” (The Journal of Biological Chemistry, 2021).
Bridge positions count the residues as written; N and C are the ends. Square brackets hold non-standard residues; d marks the D form. Peptide text beside a SMILES is read from it. Phe(4-F) = N[C@@H](Cc1ccc(F)cc1)C(=O)O; Nva = CCC[C@H](N)C(=O)O

How the values were obtained:
[1] = molecular target: C. elegans iPGM (Caenorhabditis elegans, UniProt G5EFZ1); assay: PGM enzyme assay (enolase–pyruvate kinase coupled, Kinase-Glo Plus end point) and IC50 determination; type: biochemical; details: Ce iPGM Ave IC50 (M), 5 nM enzyme
[2] = molecular target: B. malayi iPGM (Brugia malayi, UniProt Q4VWF8); assay: biochemical; details: Bm iPGM Ave IC50 (M), 5 nM enzyme
UniProt Q4VWF8, sequence (Q4VWF8 whole entry): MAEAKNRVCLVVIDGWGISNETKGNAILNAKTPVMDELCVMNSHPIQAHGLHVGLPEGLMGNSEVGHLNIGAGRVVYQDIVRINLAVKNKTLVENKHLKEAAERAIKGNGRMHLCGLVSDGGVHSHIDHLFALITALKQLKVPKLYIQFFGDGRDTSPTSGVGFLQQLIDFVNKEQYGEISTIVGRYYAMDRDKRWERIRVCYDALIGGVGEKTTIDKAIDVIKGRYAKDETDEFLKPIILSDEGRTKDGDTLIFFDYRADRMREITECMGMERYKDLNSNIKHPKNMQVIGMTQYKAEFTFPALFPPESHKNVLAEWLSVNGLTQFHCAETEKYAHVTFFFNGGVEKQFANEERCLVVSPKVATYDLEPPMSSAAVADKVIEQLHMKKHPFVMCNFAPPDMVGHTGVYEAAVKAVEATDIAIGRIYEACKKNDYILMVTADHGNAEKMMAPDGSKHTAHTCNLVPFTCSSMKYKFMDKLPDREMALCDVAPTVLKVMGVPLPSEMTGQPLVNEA

[3] = molecular target: O. volvulus iPGM (Onchocerca volvulus, UniProt I6LDA6); assay: biochemical; details: Ov iPGM Ave IC50 (M), 5 nM enzyme
UniProt I6LDA6, sequence (I6LDA6 whole entry): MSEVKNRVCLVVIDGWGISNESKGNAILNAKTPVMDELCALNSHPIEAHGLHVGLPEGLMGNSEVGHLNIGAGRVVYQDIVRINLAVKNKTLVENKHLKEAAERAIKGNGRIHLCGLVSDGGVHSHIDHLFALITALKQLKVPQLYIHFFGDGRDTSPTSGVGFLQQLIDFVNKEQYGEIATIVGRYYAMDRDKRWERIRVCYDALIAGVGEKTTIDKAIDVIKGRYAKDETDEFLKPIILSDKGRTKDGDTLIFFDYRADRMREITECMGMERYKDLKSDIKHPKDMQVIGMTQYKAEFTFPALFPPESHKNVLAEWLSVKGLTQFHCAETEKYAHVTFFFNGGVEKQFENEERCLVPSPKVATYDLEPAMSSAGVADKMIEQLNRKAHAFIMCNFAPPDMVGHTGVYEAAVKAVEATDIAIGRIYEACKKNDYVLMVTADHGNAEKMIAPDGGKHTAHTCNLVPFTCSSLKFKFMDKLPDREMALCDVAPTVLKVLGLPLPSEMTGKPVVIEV

[4] = Supplementary Table 4a, Ce-2 analogs, average of N=2-3 independent experiments
[5] = Supplementary Table 4b, Ce-2d analogs

Row | Compound | IC50 [1, 4] [M] | IC50 [2, 4] [M] | IC50 [3, 4] [M] | IC50 [1, 5] [M] | IC50 [2, 5] [M] | IC50 [3, 5] [M]
1 | CC(C)C[C@H](NC(=O)[C@H](Cc1ccc(O)cc1)NC(=O)[C@@H]1CSCC(=O)N[C@H](Cc2ccc(O)cc2)C(=O)N[C@@H](CC(=O)O)C(=O)N[C@@H](Cc2ccc(O)cc2)C(=O)N[C@@H](C(C)C)C(=O)NCC(=O)N[C@@H](CC(=O)O)C(=O)N[C@@H](Cc2ccc(O)cc2)C(=O)N1)C(=O)N[C@@H](Cc1ccc(O)cc1)C(=O)NCC(=O)N[C@H](C(=O)N[C@@H](CS)C(N)=O)[C@@H](C)O [Ce-2 P4V] | 2.17e-09 | 1.89e-09 | 2.96e-09 |  |  | 
2 | CC(C)C[C@H](NC(=O)[C@H](Cc1ccc(O)cc1)NC(=O)[C@@H]1CSCC(=O)N[C@H](Cc2ccc(O)cc2)C(=O)N[C@@H](CC(N)=O)C(=O)N[C@@H](Cc2ccc(O)cc2)C(=O)N2CCC[C@H]2C(=O)NCC(=O)N[C@@H](CC(=O)O)C(=O)N[C@@H](Cc2ccc(O)cc2)C(=O)N1)C(=O)N[C@@H](Cc1ccc(O)cc1)C(=O)NCC(=O)N[C@H](C(=O)N[C@@H](CS)C(N)=O)[C@@H](C)O [Ce-2 D2N] ({CH2CO}-[dY]NYPGDYCYLYGTC-NH2; thioether N-8) | 2.27e-09 | 2.13e-09 | 2.9e-09 |  |  | 
3 | CC(C)C[C@H](NC(=O)[C@H](Cc1ccc(O)cc1)NC(=O)[C@@H]1CSCC(=O)N[C@H](Cc2ccc(O)cc2)C(=O)N[C@@H](CC(=O)O)C(=O)N[C@@H](Cc2c[nH]c3ccccc23)C(=O)N2CCC[C@H]2C(=O)NCC(=O)N[C@@H](CC(=O)O)C(=O)N[C@@H](Cc2ccc(O)cc2)C(=O)N1)C(=O)N[C@@H](Cc1ccc(O)cc1)C(N)=O [Ce-2d Y3W] |  |  |  | 7.59e-07 | 2.68e-06 | 1.12e-05
4 | CC(C)C[C@H](NC(=O)[C@H](Cc1ccc(O)cc1)NC(=O)[C@@H]1CSCC(=O)N[C@@H](Cc2ccc(F)cc2)C(=O)N[C@@H](CC(=O)O)C(=O)N[C@@H](Cc2ccc(O)cc2)C(=O)N2CCC[C@H]2C(=O)NCC(=O)N[C@@H](CC(=O)O)C(=O)N[C@@H](Cc2ccc(O)cc2)C(=O)N1)C(=O)N[C@@H](Cc1ccc(O)cc1)C(N)=O [Ce-2d Y1(4F)F] |  |  |  | 2.49e-09 | 3.39e-08 | 1.26e-07
5 | CC[C@H](C)[C@H](NC(=O)[C@H](Cc1ccc(O)cc1)NC(=O)[C@@H]1CSCC(=O)N[C@H](Cc2ccc(O)cc2)C(=O)N[C@@H](CC(=O)O)C(=O)N[C@@H](Cc2ccc(O)cc2)C(=O)N2CCC[C@H]2C(=O)NCC(=O)N[C@@H](CC(=O)O)C(=O)N[C@@H](Cc2ccc(O)cc2)C(=O)N1)C(=O)N[C@@H](Cc1ccc(O)cc1)C(N)=O [Ce-2d L10I] |  |  |  | 2.67e-08 | 3.74e-07 | 1.32e-06
6 | CC(C)C[C@H](NC(=O)[C@H](Cc1ccc(O)cc1)NC(=O)[C@@H]1CSCC(=O)N[C@H](Cc2ccc(O)cc2)C(=O)N[C@@H](CC(=O)O)C(=O)N[C@@H](Cc2ccc(O)cc2)C(=O)N2CCC[C@H]2C(=O)NCC(=O)N[C@@H](CC(=O)O)C(=O)N[C@@H](Cc2ccc(O)cc2)C(=O)N1)C(=O)N[C@@H](Cc1ccc(O)cc1)C(=O)NCC(=O)NCC(=O)NO [Ce-2 T13G, C14NHOH] | 4.96e-09 | 1.29e-07 | 2.02e-07 |  |  | 
7 | COc1ccc(C[C@H]2NC(=O)CSC[C@@H](C(=O)N[C@@H](Cc3ccc(O)cc3)C(=O)N[C@@H](CC(C)C)C(=O)N[C@@H](Cc3ccc(O)cc3)C(N)=O)NC(=O)[C@H](Cc3ccc(O)cc3)NC(=O)[C@H](CC(=O)O)NC(=O)CNC(=O)[C@@H]3CCCN3C(=O)[C@H](Cc3ccc(O)cc3)NC(=O)[C@H](CC(=O)O)NC2=O)cc1 [Ce-2d Y1D(4OMe)F] |  |  |  | 1.35e-08 | 3.95e-08 | 1.53e-07
8 | CC(C)C[C@H](NC(=O)[C@H](Cc1ccc(O)cc1)NC(=O)[C@@H]1CSCC(=O)N[C@H](Cc2ccc(O)cc2)C(=O)N[C@@H](CC(=O)O)C(=O)N[C@@H](Cc2ccc(O)cc2)C(=O)N2CCC[C@H]2C(=O)NCC(=O)N[C@@H](CC(=O)O)C(=O)N[C@@H](Cc2c[nH]cn2)C(=O)N1)C(=O)N[C@@H](Cc1ccc(O)cc1)C(=O)NCC(=O)N[C@H](C(=O)NO)[C@@H](C)O [Ce-1 NHOH] | 2.05e-09 | 4.73e-09 | 3.97e-09 |  |  | 
9 | CC(C)C[C@H](NC(=O)[C@H](Cc1ccc(F)cc1)NC(=O)[C@@H]1CSCC(=O)N[C@H](Cc2ccc(O)cc2)C(=O)N[C@@H](CC(=O)O)C(=O)N[C@@H](Cc2ccc(O)cc2)C(=O)N2CCC[C@H]2C(=O)NCC(=O)N[C@@H](CC(=O)O)C(=O)N[C@@H](Cc2ccc(O)cc2)C(=O)N1)C(=O)N[C@@H](Cc1ccc(O)cc1)C(=O)NCC(=O)N[C@H](C(=O)N[C@@H](CS)C(N)=O)[C@@H](C)O [Ce-2 Y9(4F)F] ({CH2CO}-[dY]DYPGDYC[Phe(4-F)]LYGTC-NH2; thioether N-8) | 1.79e-09 | 3.31e-09 | 3.84e-09 |  |  | 
10 | CC(C)C[C@H](NC(=O)[C@H](Cc1ccc(O)cc1)NC(=O)[C@@H]1CSCC(=O)N[C@H](Cc2ccc(O)cc2)C(=O)N[C@@H](CC(=O)O)C(=O)N[C@@H](Cc2ccc(O)cc2)C(=O)N2CCC[C@H]2C(=O)NCC(=O)N[C@@H](CC(=O)O)C(=O)N[C@@H](Cc2ccc(O)cc2)C(=O)N1)C(=O)N[C@@H](Cc1ccc(F)cc1)C(N)=O [Ce-2d Y11(4F)F] |  |  |  | 3.69e-09 | 4.74e-08 | 1.4e-07
11 | CC[C@H](C)[C@@H]1NC(=O)[C@H](Cc2ccc(O)cc2)NC(=O)[C@H](CC(=O)O)NC(=O)[C@@H](Cc2ccc(O)cc2)NC(=O)CSC[C@@H](C(=O)N[C@@H](Cc2ccc(O)cc2)C(=O)N[C@@H](CC(C)C)C(=O)N[C@@H](Cc2ccc(O)cc2)C(N)=O)NC(=O)[C@H](Cc2ccc(O)cc2)NC(=O)[C@H](CC(=O)O)NC(=O)CNC1=O [Ce-2d P4I] |  |  |  | 6.05e-09 | 1.19e-07 | 5.21e-07
12 | CC(C)C[C@H](NC(=O)[C@H](Cc1ccc(O)cc1)NC(=O)[C@@H]1CSCC(=O)N[C@H](Cc2ccc(O)cc2)C(=O)N[C@@H](CC(=O)O)C(=O)N[C@@H](Cc2ccc(O)cc2)C(=O)N[C@@H](C)C(=O)NCC(=O)N[C@@H](CC(=O)O)C(=O)N[C@@H](Cc2ccc(O)cc2)C(=O)N1)C(=O)N[C@@H](Cc1ccc(O)cc1)C(N)=O [Ce-2d P4A] |  |  |  | 6.76e-09 | 3.66e-08 | 1.85e-07
13 | CC(C)C[C@H](NC(=O)[C@H](Cc1ccc(O)cc1)NC(=O)[C@@H]1CSCC(=O)N[C@H](Cc2ccc(O)cc2)C(=O)N[C@@H](CC(=O)O)C(=O)N[C@@H](Cc2ccc(O)cc2)C(=O)N2CCC[C@H]2C(=O)NCC(=O)N[C@@H](CC(=O)O)C(=O)N[C@@H](Cc2ccc(O)cc2)C(=O)N1)C(=O)N[C@@H](Cc1ccccc1)C(N)=O [Ce-2d Y11F] |  |  |  | 8e-09 | 5.53e-08 | 2.14e-07
14 | CCC[C@@H]1NC(=O)[C@@H](Cc2ccc(O)cc2)NC(=O)CSC[C@@H](C(=O)N[C@@H](Cc2ccc(O)cc2)C(=O)N[C@@H](CC(C)C)C(=O)N[C@@H](Cc2ccc(O)cc2)C(=O)NCC(=O)N[C@H](C(=O)N[C@@H](CS)C(N)=O)[C@@H](C)O)NC(=O)[C@H](Cc2ccc(O)cc2)NC(=O)[C@H](CC(=O)O)NC(=O)CNC(=O)[C@@H]2CCCN2C(=O)[C@H](Cc2ccc(O)cc2)NC1=O [Ce-2 D2Nva] ({CH2CO}-[dY][Nva]YPGDYCYLYGTC-NH2; thioether N-8) | 1.69e-09 | 1.37e-09 | 2.2e-09 |  |  | 
15 | CC(C)C[C@H](NC(=O)[C@H](Cc1ccc(O)cc1)NC(=O)[C@@H]1CSCC(=O)N[C@H](Cc2ccc(O)cc2)C(=O)N[C@@H](CCC(=O)O)C(=O)N[C@@H](Cc2ccc(O)cc2)C(=O)N2CCC[C@H]2C(=O)NCC(=O)N[C@@H](CC(=O)O)C(=O)N[C@@H](Cc2ccc(O)cc2)C(=O)N1)C(=O)N[C@@H](Cc1ccc(O)cc1)C(N)=O [Ce-2d D2E] |  |  |  | 9.62e-09 | 7.03e-08 | 2.79e-07
16 | CC(C)C[C@H](NC(=O)[C@H](Cc1ccc(O)cc1)NC(=O)[C@@H]1CSCC(=O)N[C@H](Cc2ccc(O)cc2)C(=O)N[C@@H](CC(=O)O)C(=O)N[C@@H](Cc2ccc(O)cc2)C(=O)N2CCC[C@H]2C(=O)NCC(=O)N[C@@H](CC(=O)O)C(=O)N[C@@H](Cc2ccc(O)cc2)C(=O)N1)C(=O)N[C@@H](Cc1ccc(O)cc1)C(=O)O [Ce-2d Y11COOH] |  |  |  | 4.64e-08 | 5.12e-07 | 6.98e-07
17 | CC(C)C[C@H](NC(=O)[C@H](Cc1ccc(O)cc1)NC(=O)[C@@H]1CSCC(=O)N[C@H](Cc2ccc(F)cc2)C(=O)N[C@@H](CC(=O)O)C(=O)N[C@@H](Cc2ccc(O)cc2)C(=O)N2CCC[C@H]2C(=O)NCC(=O)N[C@@H](CC(=O)O)C(=O)N[C@@H](Cc2ccc(O)cc2)C(=O)N1)C(=O)N[C@@H](Cc1ccc(O)cc1)C(N)=O [Ce-2d Y1D(4F)F] |  |  |  | 2.9e-09 | 2.37e-08 | 6.39e-08
18 | COc1ccc(C[C@@H]2NC(=O)CSC[C@@H](C(=O)N[C@@H](Cc3ccc(O)cc3)C(=O)N[C@@H](CC(C)C)C(=O)N[C@@H](Cc3ccc(O)cc3)C(N)=O)NC(=O)[C@H](Cc3ccc(O)cc3)NC(=O)[C@H](CC(=O)O)NC(=O)CNC(=O)[C@@H]3CCCN3C(=O)[C@H](Cc3ccc(O)cc3)NC(=O)[C@H](CC(=O)O)NC2=O)cc1 [Ce-2d Y1(4OMe)F] |  |  |  | 4.48e-09 | 1.58e-08 | 3.87e-08
19 | CC(C)C[C@H](NC(=O)[C@H](Cc1ccc(F)cc1)NC(=O)[C@@H]1CSCC(=O)N[C@H](Cc2ccc(O)cc2)C(=O)N[C@@H](CC(=O)O)C(=O)N[C@@H](Cc2ccc(O)cc2)C(=O)N2CCC[C@H]2C(=O)NCC(=O)N[C@@H](CC(=O)O)C(=O)N[C@@H](Cc2ccc(O)cc2)C(=O)N1)C(=O)N[C@@H](Cc1ccc(O)cc1)C(N)=O [Ce-2d Y9(4F)F] |  |  |  | 3.8e-08 | 2.33e-07 | 7.64e-07
20 | CC(C)C[C@H](NC(=O)[C@H](Cc1ccc(O)cc1)NC(=O)[C@@H]1CSCC(=O)N[C@H](Cc2ccc(O)cc2)C(=O)N[C@@H](CC(=O)O)C(=O)N[C@@H](Cc2ccc(F)cc2)C(=O)N2CCC[C@H]2C(=O)NCC(=O)N[C@@H](CC(=O)O)C(=O)N[C@@H](Cc2ccccc2)C(=O)N1)C(=O)N[C@@H](Cc1ccc(O)cc1)C(=O)NCC(=O)N[C@H](C(=O)N[C@@H](CS)C(N)=O)[C@@H](C)O | 9.03e-10 | 2.12e-09 | 1.87e-09 |  |  | 
